Measured values: PubChem BioAssay AID493208 (National Center for Advancing Translational Sciences (NCATS), 2011)
The campaign covered roughly 44,000 compounds. About 340 (0.77%) were called active. Not shown: some 5% with an inconclusive outcome. Calls come from the whole dose curve; as a rule, active = well fitted inhibition curve with a large enough effect; inconclusive = small, poorly fitted or top-dose-only effect; inactive = flat fitted curve, though single readings scatter. This is one part of the list.

Assay: Acumen qHTS Assay for Inhibitors of the mTORC1 Signaling Pathway in MEF (Tsc2-/-, p53-/-) Cells: Sytravon;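 note: plate controls were DMSO for no effect and rapamycin for full effect; nearly all actives have a fitted effect of over 50% in size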
Details: phospho-rpS6 immunofluorescence/PI, 24 h; series mostly up to 38.3 µM; activity change, negative = inhibition: at the top concentration
Procedure, shortened: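 Compounds act on Tsc2-/-, p53-/- fibroblasts carrying an empty vector for 24 h before fixation and dual staining for phospho-S6 and DNA (propidium iodide). Values are percentages of cells above a rapamycin-defined pS6/PI threshold.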

| SMILES | activity change, negative = inhibition |
| --- | --- |
| COc1cccc(NS(=O)(=O)c2ccc3[nH]cc(C(=O)NC4CCCCC4)c(=O)c3c2)c1 | inactive: 0.284% |
| Cc1c(CNC(C)c2ccccc2)c(C(=O)O)c(C)n1Cc1c(F)cccc1Cl (stereo unspecified) | inactive: -3.76% |
| CCOC(=O)C1CCCN(C(=O)c2cc3c(=O)n(C)c4ccccc4c3s2)C1 (stereo unspecified) | inactive: -8.31% |
| CCOc1ccc(-c2c(C)nn3c(C)c(C(=O)NCC(C)c4ccccc4)cnc23)cc1OCC (stereo unspecified) | inactive: -16.5% |
| COc1cc(-c2noc(-c3nnn(-c4ccc(Cl)cc4)c3C)n2)cc(OC)c1OC | inactive: -0.796% |
| CCc1ccc(N2C(=O)CS(=O)(=O)C23C(=O)N(Cc2ccccc2)c2ccccc23)cc1 (stereo unspecified) | inactive: 8.83% |
| Cc1ccc(-n2nc(CO)c(C(=O)NCCc3ccccc3)n2)cc1C | inactive: -5.55% |
| O=C(Nc1ccccc1C(F)(F)F)c1noc2c1CCCCC2 | inactive: 3.6% |
| CCc1cccc(C)c1Nc1c(-c2ccc(N3CCOCC3)cc2)nc2ncccn12 | inactive: -6.36% |
| CC(=O)c1ccc(NC(=O)C2CCCN(S(=O)(=O)c3cn(C)cn3)C2)cc1 (stereo unspecified) | inactive: 5.32% |
| Cc1c2cnn(CC(=O)Nc3ccc(F)cc3F)c(=O)c2c(C)n1Cc1cccc(Cl)c1 | inactive: -8.1% |
| CCOC(=O)c1cc2c(=O)n3ccccc3nc2n(Cc2ccco2)c1=NC(=O)c1ccccc1OC | inactive: -13.8% |
| Cc1ccc(NC(=O)C2CCCN(c3nnc(C)c4c(C)n(-c5ccccc5)nc34)C2)cc1Cl (stereo unspecified) | inactive: 1.25% |
| O=C(Cn1c(=O)n(-c2ccc(F)cc2)c(=O)c2sccc21)Nc1cccc(C(F)(F)F)c1 | inactive: -1.73% |
| COc1ccc(-n2nc3c(c2NC(=O)C(=O)N2CCN(C)CC2)CSC3)cc1 | inactive: -1.86% |
| COc1ccc(Cn2c(C(=O)O)c(CNCCc3ccccc3Cl)c3ccc(C)cc32)cc1 | inactive: -11.9% |
| COc1cccc(CNC(=O)Cn2c(=O)oc3cc(S(=O)(=O)N4CCC(C)CC4)ccc32)c1 | inactive: -16.4% |
| Cc1ccc(-n2nc3c(=O)n(C(C)C(=O)O)nc(C)c3c2C)cc1 (stereo unspecified) | inactive: -3.1% |
| CCC(=O)N1CCc2cc(S(=O)(=O)CCC(=O)NCc3ccc(F)cc3)ccc21 | inactive: -3.21% |
| CC(C)NC(=O)c1cc2c(Cl)nc3ccccc3c2s1 | inactive: -0.0482% |
| Cc1ccc(CNC(=O)c2ccc3c(c2)N(Cc2cccc(Cl)c2)C(=O)CS3)cc1 | inactive: 0.798% |

| SMILES | activity change, negative = inhibition |
| --- | --- |
| Cc1cc(O)c(C(=O)c2cnc3c(c2)COc2ccccc2-3)cc1Cl | inactive: -2.63% |
| CCOc1ccc(NC(=O)Cn2cc(C(=O)c3ccc(C)c(C)c3)c(=O)c3cc(F)ccc32)cc1 | inactive: -2.43% |
| Cc1ccc(Cl)cc1NC(=O)Cn1c(=O)n(CCC(=O)N2CCc3ccccc3C2)c(=O)c2ccccc21 | inactive: 0.391% |
| COc1cc(NC(=O)CSc2nc3nc(C)c(Cc4ccccc4)c(C)n3n2)cc(OC)c1 | inactive: 0.489% |
| CCN(c1ccc(C)cc1C)S(=O)(=O)c1nnc(NC(=O)CC(C)C)s1 | inactive: 1.2% |
| CCN(CC)c1nn2c(=O)c(C(=O)NCc3cccc(OC)c3OC)cnc2s1 | inactive: -1.99% |
| COc1cccc(NC(=O)CSc2cc(C)[nH]c(=O)n2)c1 | inactive: 0.448% |
| CC1N=C2c3ccccc3N=C(SCC(=O)NCc3ccc(Cl)cc3)N2C1=O (stereo unspecified) | inactive: 7.39% |
| COc1cccc(-c2n[nH]c3c2C(c2cccc(O)c2)N(C)C3=O)c1 (stereo unspecified) | inactive: -5.18% |
| CCS(=O)(=O)N1CC(=O)N(c2cccc(C)c2C)C(C)(C(=O)NC2CCCCCC2)C1 (stereo unspecified) | inactive: 1.35% |
| COc1ccc(CNC(=O)c2cnn(-c3ccc(OC)cc3)c2C2CCN(C(=O)OC(C)(C)C)CC2)cc1 | inactive: 2.53% |
| Cc1nc(SCC(=O)Nc2ccccc2Cl)cc(-c2ccccc2)n1 | inactive: -9.35% |
| Cc1c2cnn(-c3ccccc3)c(=O)c2c(C)n1CC(=O)N1CCN(c2cccc(Cl)c2)CC1 | inactive: -1.83% |
| CCCCOc1ccc(S(=O)(=O)Nc2ccc(-c3ccc(N4CCCCC4)nn3)cc2)cc1 | inactive: 1.89% |
| Cc1cccc2c1-c1sc(C(=O)Nc3ccccc3C(N)=O)cc1CO2 | inactive: -1% |
| Cc1ccccc1OCC(=O)NCC(c1ccc(Cl)cc1)N1CCOCC1 (stereo unspecified) | inactive: -5.73% |
| Cc1c(C(=O)N(C)c2ccccc2)sc2nc(-c3ccc(F)cc3)cn12 | inactive: -0.223% |
| CCc1cc2c(cc3c(=O)n(CC(=O)NC4CCC(C)CC4)nc(CC)n32)s1 (stereo unspecified) | inactive: -2.28% |
| O=C(Nc1cccc2cccnc12)c1cccc2c(Br)cccc12 | inactive: 6.15% |
| O=C1c2oc3ccccc3c(=O)c2C(c2ccccc2F)N1Cc1ccc2c(c1)OCO2 (stereo unspecified) | inactive: -6.9% |
| Cc1ccc2onc(CNC(=O)N(C)Cc3ccccc3)c2c1 | inactive: -5.44% |

| SMILES | activity change, negative = inhibition |
| --- | --- |
| CCN(CC)CCNC(=O)c1sc2nc(C)cc(C)c2c1-n1cccc1 | inactive: 0% |
| COc1ccc(-n2c(Cc3ccccc3)nnc2SCc2nc(-c3ccccc3C)no2)cc1 | inactive: 3.45% |
| CCc1ccccc1NC(=O)Cn1c(C(=O)OC)cc2oc(C)cc21 | inactive: -1.88% |
| CCOC(=O)c1ccc(NC(=O)c2cccc3c(=O)c4c([nH]c23)CCCC4)cc1 | inactive: 0.355% |
| COc1ccc(NC(=O)Cn2ccn(Cc3ccccc3)c(=O)c2=O)cc1Cl | inactive: 8.88% |
| CN(C(=O)CSc1cn(CC(=O)N2CCCC2)c2ccccc12)c1ccccc1 | inactive: -4.9% |
| O=C(Nc1ccc(Br)cc1F)c1ccc2nc(CCc3ccccc3)oc2c1 | inactive: -0.536% |
| O=C1c2[nH]nc(-c3ccccc3O)c2C(c2cccc(Br)c2)N1Cc1ccncc1 (stereo unspecified) | inactive: -24.6% |
| CCOC(=O)c1cc(-c2ccccc2)n(-c2cccc(C(=O)NC(C)CC)c2)c1C (stereo unspecified) | inactive: -0.627% |
| O=C(Cn1ncc2c3ccccc3n(Cc3ccc(F)cc3)c2c1=O)NC1CCCCCC1 | inactive: 0.154% |
| CCn1c(CN2CCCCC2)nc2cc(NC(=O)COc3cc(C)ccc3C(C)C)ccc21 | inactive: -1.99% |
| Cc1ccc(N(C)S(=O)(=O)c2ccc(-c3cnc(C4CC4)o3)cc2)cc1 | inactive: 0.634% |
| COc1ccc(Nc2nc(-c3ccccc3)c3cc(Br)ccc3n2)cc1 | inactive: 8.23% |
| CC(C)Oc1ccc(CNC(=O)c2ccc3c(c2)N(Cc2ccc(F)cc2)CCS3)cc1 | inactive: -1.19% |
| O=C(C1CCCCC1)N(Cc1cccnc1)c1nc2c(F)cccc2s1 | inactive: 0.241% |
| Clc1ccccc1CNc1nc2ccccc2c2nc(-c3ccccc3)nn12 | inactive: -6.99% |
| COc1cc2c(cc1OC)C(COc1ccccc1OC)N(C(=O)c1ccc(S(=O)(=O)N3CCCC3)cc1)CC2 (stereo unspecified) | inactive: -0.0903% |
| Cc1ccc(C)c(NC(=O)N2CCN(c3nnc(C)c4c(C)n(-c5ccccc5)nc34)CC2)c1 | inactive: -19.4% |
| Cc1cc(C)c(S(=O)(=O)Nc2ccc(-c3ccc(N4CCCCC4)nn3)cc2)c(C)c1 | inactive: -3.68% |
